# The campaign covered roughly 320,000 compounds. About 9,100 (2.8%) were called active. Inconclusive results, whose numbers are uncertain, are shown with a selection of clear calls. Calls come from the whole dose curve; as a rule, active = well fitted activation curve with a large enough effect; inconclusive = small, poorly fitted or top-dose-only effect; inactive = no such curve, though single readings can be large or run the other way. Potencies of inconclusive entries are left out as doubtful fits.
# Test: qHTS Assay for Rab9 Promoter Activators; note: nearly all actives have a fitted effect of over 60% in size
# Conditions: Huh7 Rab9 promoter-luciferase reporter, luminescence, 24 h; series mostly up to 9.22 µM
# Outline: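 Quantitative HTS format; Huh7 Rab9-luciferase reporter cells (1500/well) receive compound 2 h post-plating, incubate 24 h at 37 °C, then get luciferase reagent for 10 min before luminescence reading.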
# Potency is the fitted concentration of half-maximal effect; tags give direction and shape of the fitted curve.
row,SMILES,Potency
1,O=C(Oc1cccc(NC(=O)c2ccccc2Cl)c1)c1ccc([N+](=O)[O-])cc1,"inconclusive [activator, single point]"
2,O=C(CCS(=O)(=O)c1ccccc1)Nc1ccc(Cl)cn1,"inconclusive [activator, single point]"
3,NC(=O)c1ccccc1-c1noc(-c2ccccc2F)n1,"inconclusive [activator, single point]"
4,Cc1ccc2nc(-c3ccc(NC(=O)COC(=O)c4ccc(=O)[nH]c4)cc3)sc2c1,active: 0.562 µM
5,CC(=O)c1sc(Nc2nc3ccc(F)cc3s2)nc1C,active: 1.78 µM
6,Cc1cccc(-n2cnc(C(=O)Nc3cccnc3)c2)n1,active: 2.24 µM
7,O=C(c1ccc(NS(=O)(=O)/C=C/c2ccccc2)cc1)N1CCCCC1,inactive
8,Cc1ccc(-c2cc3onc(-c4ccccc4)c3c(=O)n2C)cc1,"inconclusive [activator, full curve, poor fit]"
9,O=C(Cc1cccs1)N/N=C/C=C\c1ccccc1[N+](=O)[O-],"inconclusive [activator, single point]"
10,CN(C(=O)c1ccccc1)c1nc2ccccc2s1,active: 0.562 µM
11,COc1nc(NCCC2=CCCCC2)nc(OC)n1,"inconclusive [activator, single point]"
12,CSc1ccccc1NC(=O)Nc1cccc(F)c1,"inconclusive [activator, partial curve]"
13,COc1ccc(C(C[N+](=O)[O-])C2(c3ccc(OC)c(OC)c3)C(=O)c3ccccc3C2=O)cc1 (centres undefined),"inconclusive [activator, partial curve]"
14,C/C(=N\NC(=O)c1ccn(C)n1)c1ccc(NC(=O)c2cccc(F)c2)cc1,"inconclusive [activator, partial curve]"
15,CCc1ccc(N2C(=O)CC(N3CCN(Cc4ccc5c(c4)OCO5)CC3)C2=O)cc1 (centres undefined),inactive
16,O=C1c2ccccc2C(=O)C1c1ccncc1,active: 0.501 µM
17,O=C(N/N=C/C(Cl)=C/c1ccc([N+](=O)[O-])cc1)C(=O)Nc1cccc(C(=O)O)c1,"inconclusive [activator, partial curve]"
18,CC(=O)c1cccc(NC(=O)Nc2cccnc2)c1,inactive
19,CCCC(=O)NC(=S)Nc1ccc(C(C)=O)cc1,"inconclusive [activator, single point]"
20,COC(=O)c1c(C)n(-c2ccc(OC)cc2)c2ccc(O)cc12,inactive
21,O=C(CCCCCN1C(=O)c2cccc3cccc(c23)C1=O)NC1CCS(=O)(=O)C1 (centres undefined),inactive
22,CC1CC(C)CN(CCCNC(=O)c2nn(C)c3c2CS(=O)(=O)c2ccccc2-3)C1 (centres undefined),inactive
23,CCc1ccc(NC(=O)COc2ccc(F)cc2C(=O)c2cnn(-c3ccccc3)c2)cc1,"inconclusive [activator, single point]"
24,Cc1ccc(Cn2cc(-c3ccccc3)nn2)cc1,"inconclusive [activator, partial curve]"
25,c1cc2c(cc1-c1csc(NNC3=NCCCCC3)n1)OCCO2,"inconclusive [activator, single point]"

row,SMILES,Potency
1,CCC(=O)c1ccc(OCc2ccc(C#N)cc2)cc1,"inconclusive [activator, full curve, poor fit]"
2,COc1ccc(C(=O)Nc2cnc3sc(C)nn3c2=O)cc1,"inconclusive [activator, single point]"
3,CC(=O)COc1ccc2c(c1C)O/C(=C\c1ccco1)C2=O,"inconclusive [activator, single point]"
4,N/C(=N\OCc1ccc([N+](=O)[O-])cc1)c1ccccn1,"inconclusive [activator, partial curve, poor fit]"
5,CC(=C/c1ccccc1)/C=N/NC(=O)c1ccccn1,active: 0.447 µM
6,COc1cccc(C(=O)/C=C/Nc2cccc(O)c2)c1,"inconclusive [activator, single point]"
7,Oc1ccccc1CNc1cnc2ccccc2c1,"inconclusive [activator, partial curve]"
8,O=c1[nH]c(/C=C/c2ccccc2[N+](=O)[O-])nc2ccccc12,"inconclusive [activator, partial curve]"
9,C=C(C)Cn1cnc2c(oc3nc4c(cc32)CCCC4)c1=O,active: 1.58 µM
10,O=C(CCl)Nc1ccccc1C(=O)c1ccccc1,inactive
11,N#Cc1nc(-c2ccco2)oc1N1CCN(Cc2ccccc2)CC1,"inconclusive [activator, single point]"
12,Cc1ccc(CNC(=O)CSc2ccsc2[N+](=O)[O-])cc1,active: 1.41 µM
13,COc1ccccc1/C=C/C=N/n1c(-c2ccccn2)n[nH]c1=S,"inconclusive [activator, single point]"
14,Cc1nn(C(C)C)c(C)c1CN1CCC(C(=O)Nc2cccc(-c3cccc(F)c3)c2)CC1,inactive
15,O=C(Nc1cnccn1)c1csc2ccccc12,"inconclusive [activator, single point]"
16,Cc1ccc(C)c(NC(=O)c2ccccc2O)c1,"inconclusive [activator, partial curve]"
17,CC(=O)Nc1ccc(/C=N/Nc2nc3ccccc3s2)cc1,active: 0.447 µM
18,Cc1ccc(NC(=O)c2ccc(OCC3CCCO3)cc2)cc1 (centres undefined),active: 2.51 µM
19,COc1ccc(N2CCN(C(=O)Cn3nnc(-c4ccccc4N)n3)CC2)cc1,inactive
20,Cc1ccc(S(=O)(=O)N2CCN(S(=O)(=O)c3cccs3)CC2)cc1,"inconclusive [activator, partial curve]"
21,CC(=O)Nc1cccc(-c2csc(Nc3cccc(C)n3)n2)c1,active: 1.58 µM
22,O=C(OCc1ccc(-c2ccccc2)cc1)c1cccc(O)c1,"inconclusive [activator, partial curve]"
23,C=CCNC(=O)c1c(Cl)cnn1-c1ccc(C)cc1,active: 3.16 µM
24,Cc1nc(NC(=O)c2ccccc2)nc2cc3c(cc12)OCO3,"inconclusive [activator, partial curve]"
25,COc1ccc(NC(=O)Nc2cccs2)cc1Cl,"inconclusive [activator, partial curve]"

row,SMILES,Potency
1,O=c1oc(-c2ccccc2F)nc2scc(-c3ccccc3)c12,"inconclusive [activator, partial curve]"
2,O=C(/C=C/c1ccccc1)NC(=S)Nc1ccccc1O,"inconclusive [activator, partial curve]"
3,CCCc1nnc(NC(=O)c2cccs2)s1,"inconclusive [activator, partial curve]"
4,CSc1cccc(-n2cc(-c3ccc4c(c3)OCO4)[nH]c2=O)c1,"inconclusive [activator, full curve, poor fit]"
5,CCCc1nn(C)c(C(=O)Nc2cccc(CC)c2)c1Cl,"inconclusive [activator, single point]"
6,Nc1nc(NC(=O)c2ccco2)nn1-c1ccccc1,"inconclusive [activator, partial curve]"
7,CCOC(=O)N/N=C/C(Cl)=C/c1ccccc1,"inconclusive [activator, partial curve]"
8,Cc1cc(NC(=O)c2ccccc2)no1,"inconclusive [activator, single point]"
9,O=C(N=C1SCC(=O)N1c1ccccc1)c1ccco1,"inconclusive [activator, single point]"
10,Cc1ccc(C(=O)NC(=S)NCC2CCCO2)cc1 (centres undefined),"inconclusive [activator, partial curve]"
11,CC(CC(=O)Nc1ccc2c(c1)OCO2)c1ccccc1 (centres undefined),"inconclusive [activator, partial curve]"
12,CC1Cc2ccccc2N1S(=O)(=O)c1cccc(C(=O)NCc2ccncc2)c1 (centres undefined),inactive
13,O=C(N/N=C/c1ccc([N+](=O)[O-])o1)c1ccc(NS(=O)(=O)c2cccs2)cc1,inactive
14,N#CCSc1nc2[nH]ncc2c(=O)n1-c1ccccc1Br,active: 0.316 µM
15,O=C(Nc1ccc2ccccc2c1)c1cc(F)c(F)cc1Cl,"inconclusive [activator, single point]"
16,CCN(CC)c1ccc(-c2nn3c(-c4ccccc4OC)nnc3s2)cc1,inactive
17,O=C(Nc1cccc([N+](=O)[O-])c1)c1ccc2ccccc2c1O,"inconclusive [activator, full curve]"
18,COc1ccccc1C(=O)NCc1ccc(-c2nc3ccccc3s2)cc1,"inconclusive [activator, single point]"
19,CCC(=O)Nc1cc(NC(=O)CSc2ncc(-c3ccc(F)cc3)n2Cc2ccco2)ccc1C,"inconclusive [activator, partial curve]"
20,Cn1/c(=N\NC(=O)c2ccccc2Cl)sc2ccccc21,"inconclusive [activator, partial curve]"
21,Cc1ccc(-c2noc(CSc3ccccc3)n2)cc1,active: 1.78 µM
22,Fc1ccc(-c2nnc(NC3=NCCCCC3)o2)cc1,active: 0.0891 µM
23,CC(C)(C)Cc1nnc(NC(=O)CCc2ccccc2)s1,"inconclusive [activator, partial curve]"
24,CC/C(=N\NC(=O)c1ccc2c(c1)OCO2)c1ccccc1,"inconclusive [activator, partial curve]"
